Results: the supplement of paper PMC6089552
Hit rate of the full screen: of about 3,200 compounds, about 300 (9.4%) showed activity. The entries are a selection whose mix differs from that of the whole data set.

Test system: A673/TR/shEF
Assay: cell viability (LOESS-normalised, relative to median of negative controls) (log2 ratio); higher = more viable cells (less compound effect), active = hit call of the paper (over 3 MAD below the median)
Conditions: treatment time: 72 h
Method in brief: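 A673/TR/shEF Ewing sarcoma cells (1,500 per well, 384-well plates) were grown with or without doxycycline to induce EWS-FLI1 shRNA knockdown, starting 24 h before compounds. Library compounds at two or more concentrations, with DMSO controls, were added for three days. Cell viability was read by CellTiter-Glo luminescence on an Envision reader, then LOESS-corrected per plate, divided by the median of negative controls and log2-transformed. Hits were wells at least three median absolute deviations from the median of all screened wells.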

[1] = 0.25 µM, library screen: screen1, EWS-FLI1 expression: high (no doxycycline)
[2] = 0.25 µM, library screen: screen1, EWS-FLI1 expression: low (doxycycline-induced shRNA knockdown)
[3] = 0.25 µM, library screen: screen2, EWS-FLI1 expression: high (no doxycycline)
[4] = 0.25 µM, library screen: screen2, EWS-FLI1 expression: low (doxycycline-induced shRNA knockdown)
[5] = 2.5 µM, library screen: screen1, EWS-FLI1 expression: high (no doxycycline)
[6] = 2.5 µM, library screen: screen1, EWS-FLI1 expression: low (doxycycline-induced shRNA knockdown)
[7] = 2.5 µM, library screen: screen2, EWS-FLI1 expression: high (no doxycycline)
[8] = 2.5 µM, library screen: screen2, EWS-FLI1 expression: low (doxycycline-induced shRNA knockdown)

Measured: cell viability (log2)

C[C@H]1[C@H]2CC[C@H]3[C@@H]4CC=C5C[C@@H](N(C)C)CC[C@]5(C)[C@H]4CC[C@]23CN1C
inactive: 0.025 µM, library screen: screen2, EWS-FLI1 expression: high (no doxycycline) 0.131 | 0.025 µM, library screen: screen2, EWS-FLI1 expression: low (doxycycline-induced shRNA knockdown) -0.0144 | [1] 0.0254 | [2] 0.0832 | [3] 0.0989 | [4] -0.00762 | [5] 0.0975 | [6] 0.201 | [7] 0.117 | [8] 0.0699 | 25 µM, library screen: screen2, EWS-FLI1 expression: high (no doxycycline) 0.0599 | 25 µM, library screen: screen2, EWS-FLI1 expression: low (doxycycline-induced shRNA knockdown) 0.0252

O=C(O[C@@H]1Cc2c(O)cc(O)cc2O[C@@H]1c1cc(O)c(O)c(O)c1-c1c([C@H]2Oc3cc(O)cc(O)c3C[C@H]2OC(=O)c2cc(O)c(O)c(O)c2)cc(O)c(O)c1O)c1cc(O)c(O)c(O)c1
inactive: [1] 0.0884 | [2] -0.013 | [5] 0.1 | [6] 0.103

CCOC(=O)c1c[nH]c2c(Cl)c(Cl)ccc2c1=O
inactive: [1] 0.0772 | [2] 0.122 | [5] 0.11 | [6] 0.176

CC(C)NCC(O)COc1cccc2[nH]ccc12 (centres undefined)
inactive: [1] 0.0936 | [2] 0.112 | [3] 0.117 | [4] 0.0869 | [5] 0.137 | [6] 0.225 | [7] 0.00803 | [8] 0.0539

CC(C)=CCC[C@@H](C)[C@@H]1CC[C@]2(C)C3=C(CC[C@@]12C)[C@@]1(C)CC[C@H](O)C(C)(C)[C@@H]1CC3
inactive: [1] 0.0545 | [2] -0.00304 | [5] 0.1 | [6] -0.212

OC(CCN1CCCC1)(c1ccccc1)C1CCCCC1 (centres undefined)
inactive: [1] 0.0816 | [2] 0.0476 | [5] 0.162 | [6] 0.114

CC1=C(Cl)C(O)=C(Cl)C(=O)C12Oc1cc(O)c(Cl)c(C)c1C2=O (centres undefined)
inactive: [1] 0.065 | [2] 0.0174 | [5] 0.111 | [6] 0.157

CC(CN(C)C)CN1c2ccccc2CCc2ccccc21 (centres undefined)
inactive: [1] 0.0773 | [2] 0.155 | [3] 0.0969 | [4] 0.0492 | [5] 0.142 | [6] 0.131 | [7] 0.155 | [8] 0.129

COC(=O)[C@H]1[C@H]2C[C@H]3c4[nH]c5ccccc5c4CCN3C[C@H]2CC[C@@H]1O
inactive: [1] 0.0883 | [2] 0.115 | [3] 0.0984 | [4] 0.0351 | [5] 0.105 | [6] 0.043 | [7] 0.121 | [8] 0.0741

C#C[C@]1(O)CC[C@H]2[C@@H]3CCC4=Cc5oncc5C[C@]4(C)[C@H]3CC[C@@]21C
inactive: [1] 0.0524 | [2] 0.136 | [3] 0.115 | [4] 0.123 | [5] 0.0714 | [6] 0.22 | [7] 0.0956 | [8] 0.0512
